Measurements published in the supplement of paper PMC9433436.
± gives the standard deviation of the averaged measurements. Whole data set: some 4,100 sequences, median “relative kcat/Km (krel) vs genomic leader AAAGAU” near 1.7, cut for the highest 2% near 6.5. The entries are a selection whose mix differs from that of the whole data set.

Molecular target: T1, E. coli RNase P holoenzyme (M1 P RNA + rnpA protein) (UniProt P0A7Y8)
T1 sequence: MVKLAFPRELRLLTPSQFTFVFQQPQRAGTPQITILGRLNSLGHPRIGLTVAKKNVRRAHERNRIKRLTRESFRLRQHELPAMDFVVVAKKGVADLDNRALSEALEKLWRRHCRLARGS
Assay: relative kcat/Km (krel) vs genomic leader AAAGAU (relative (reference leader = 1)); higher = faster RNase P cleavage
Description: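 HTS-Kin: a pool of ptRNA-Met (21C construct) with all 4096 combinations of 5' leader nucleotides N(-6) to N(-1) was processed in vitro by E. coli RNase P (P RNA + rnpA/C5 protein) under multiple-turnover conditions at 37 C, pH 8, 17.5 mM MgCl2. Residual substrate was Illumina-sequenced at several fractions reacted, and relative kcat/Km (krel) was computed by internal competition kinetics, calibrated to the genomic leader (AAAGAU = 1). The listed hexamer is the varied N(-6)..N(-1) leader (DNA letters), and it sits between a fixed 5' stem-loop flank (GCAUGCACGAAAGUGCGUGCUAUGAA) and the mature tRNA-Met starting GGCUACGUAGCUCAGUUGG. Two technical replicates are averaged.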

[1] = fraction of substrate reacted: ~9-10% (9.79% repeat 1, 9.1% repeat 2)
[2] = fraction of substrate reacted: ~13-16% (15.68% repeat 1, 13.17% repeat 2)
[3] = fraction of substrate reacted: ~26-29% (28.66% repeat 1, 26.4% repeat 2)

Row | Sequence | relative kcat/Km [1] | relative kcat/Km [2] | relative kcat/Km [3]
1 | CGACTA | 1.64 ± 0.35 | 1.27 ± 0.55 | 1.8 ± 0.51
2 | ACTAGG | – | – | 0.408 ± 0.15
3 | TTCGGC | – | – | 2.28 ± 1.8
4 | GGTGCC | – | 0.824 ± 0.51 | 0.763 ± 0.43
5 | CTAAGA | 2.095 ± 0.0059 | 1.72 ± 1.1 | 3.49 ± 2
6 | CGGATA | 1.24 ± 0.28 | 0.89 ± 0.2 | 1.22 ± 0.66
7 | CATTTA | 2.8 ± 1.2 | 2.69 ± 0.1 | 3.9 ± 1.3
8 | TGCTCC | 2.19 ± 0.87 | 2.31 ± 0.43 | 2.87 ± 0.78
9 | GGGGAA | – | 0.688 ± 0.52 | 1.27 ± 0.81
10 | ACTACG | – | – | 1.48 ± 0.089
11 | TCGTGA | 2.52 ± 0.93 | 1.89 ± 0.23 | 3.79 ± 1.2
12 | ACAAAG | – | 0.516 ± 0.21 | 1.39 ± 0.37
13 | CTGGCA | – | 0.28 ± 0.23 | –
14 | CCCGCA | 3.38 ± 0.43 | 3.43 ± 1.2 | 4.58 ± 1.4
15 | TGCAAG | – | – | 1.57 ± 0.045
16 | CATGTA | 1.86 ± 0.024 | 1.84 ± 0.26 | 2.19 ± 0.65
17 | AATCCA | 1.48 ± 1.2 | 0.978 ± 0.48 | 1.64 ± 0.25
18 | GATGAT | – | 0.7562 ± 0.0044 | 1.46 ± 0.9
19 | CTAATA | 1.84 ± 1.2 | 1.41 ± 0.16 | 2.03 ± 0.38
20 | CCTGAA | 1.27 ± 0.34 | 1.81 ± 0.17 | 2.41 ± 1.2
21 | AGAGTT | – | 1.16 ± 0.89 | 1.02 ± 0.045
22 | ACCGTC | 2.81 ± 0.91 | 2.48 ± 0.27 | 3.86 ± 1.3
23 | AACATG | – | – | 1.71 ± 0.03

Row | Sequence | relative kcat/Km [1] | relative kcat/Km [2] | relative kcat/Km [3]
24 | CGCATA | 1.98 ± 1.9 | 1.79 ± 0.48 | 3.42 ± 0.82
25 | AGAAGA | 1.99 ± 0.66 | 2.47 ± 0.38 | 3.9 ± 1.7
26 | GAGCAG | – | 0.164 ± 0.047 | 1.27 ± 0.062
27 | CACAGT | – | – | 1.95 ± 1.9
28 | ACTCGT | – | – | 2.02 ± 1.7
29 | AGGGAA | 0.824 ± 0.22 | 1.38 ± 0.58 | 1.32 ± 0.52
30 | TCCCCA | 1.8 ± 0.75 | 2.78 ± 0.29 | 3.93 ± 1.5
31 | GCATGA | 1.91 ± 0.28 | 1.07 ± 0.63 | 2.21 ± 0.69
32 | TGAAAC | 2.95 ± 0.82 | 3.36 ± 0.47 | 3.84 ± 1.1
33 | GGTCCA | – | 0.644 ± 0.12 | 0.616 ± 0.12
34 | TTGACA | 1.6 ± 0.66 | 1.76 ± 0.59 | 2.5 ± 0.96
35 | CTAACA | 2.23 ± 1.2 | 0.934 ± 0.91 | 1.48 ± 0.23
36 | CTTCAC | 4.29 ± 0.98 | 4.25 ± 0.77 | 6.27 ± 2.5
37 | CCATCA | 1.63 ± 0.58 | 1.19 ± 0.24 | 2.09 ± 0.084
38 | TCCCTA | 3.22 ± 1.7 | 3.63 ± 0.34 | 4.34 ± 1.6
39 | GGCGTA | 1.37 ± 0.13 | 1.04 ± 0.12 | 1.84 ± 0.65
40 | ACCAAG | – | 0.763 ± 0.21 | 2.7 ± 0.17
41 | AAGACC | 1.93 ± 0.86 | 1.66 ± 0.33 | 1.17 ± 0.3
42 | TCCCGT | – | – | 1.86 ± 0.041
43 | CGATAT | 3.51 ± 0.4 | 5.17 ± 2.6 | 6.68 ± 3
44 | TGTCGA | 1.36 ± 0.56 | 3.38 ± 1.4 | 5.15 ± 1.8
45 | AGAATT | 2.18 ± 0.14 | 2.64 ± 0.62 | 3.39 ± 1.4
46 | CAGTTT | 2.13 ± 0.89 | 2.47 ± 0.055 | 3.36 ± 1.4

Row | Sequence | relative kcat/Km [1] | relative kcat/Km [2] | relative kcat/Km [3]
47 | ACGCTA | 1.05 ± 0.29 | 0.572 ± 0.17 | 1.74 ± 0.51
48 | GGTATT | 1.13 ± 0.4 | 1.56 ± 0.34 | 2.38 ± 1.3
49 | CTCGTT | 1.65 ± 0.2 | 2.23 ± 0.54 | 2.84 ± 1.1
50 | TTATTA | 2.64 ± 1.1 | 2.76 ± 0.31 | 3.84 ± 1.4
51 | AAACTG | – | – | 0.665 ± 0.063
52 | CAGAGG | – | – | 0.599 ± 0.16
53 | AAATAG | – | 0.682 ± 0.34 | 2.3 ± 0.061
54 | CGAAAT | 2.41 ± 0.32 | 2.34 ± 0.61 | 3.43 ± 1.1
55 | AGAATA | 2.57 ± 1.8 | 2.38 ± 0.23 | 2.95 ± 0.74
56 | AAAAGA | 0.711 ± 0.38 | 1.35 ± 0.16 | 1.71 ± 0.32
57 | ACACAC | 2.52 ± 0.29 | 2.93 ± 0.19 | 4.35 ± 1.7
58 | TCACGC | 2.24 ± 0.65 | 3 ± 0.93 | 4.05 ± 1.5
59 | GACTAA | 4.15 ± 1.9 | 5.64 ± 1.3 | 8.21 ± 3.3
60 | CCTCCA | 0.975 ± 0.64 | 1.57 ± 0.89 | 1.45 ± 0.32
61 | ATTTCC | 2.26 ± 0.4 | 1.937 ± 0.0092 | 2.73 ± 0.72
62 | GAACTG | – | – | 0.897 ± 0.51
63 | CTCCAG | 2.81 ± 1.9 | 2.34 ± 0.026 | 4.6 ± 1.3
64 | AACCAC | 2.99 ± 2 | 2.74 ± 0.52 | 3.88 ± 1
65 | CTTAAC | 2.53 ± 1.3 | 2.52 ± 0.82 | 3.93 ± 1.3
66 | CGTCAT | 2.843 ± 0.013 | 4.98 ± 1.9 | 6.96 ± 3.1
67 | TGGTGG | 0.0872 ± 0.032 | – | 1.21 ± 0.9
68 | AAAGCC | 0.793 ± 0.042 | 1.32 ± 0.27 | 1.39 ± 0.07
